The other results are listed elsewhere or left out.
What was measured:
Test in all cases: glycan array binding signal (z-score within array); higher = stronger binding
Conditions in all cases: glycan notation: IUPAC condensed, linker removed
[1] = biological target: Fuc(a1-2)Gal
Method in brief: (§1)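 Arrays were curated from the Consortium for Functional Glycomics database, 3228 in total, and kept only where the protein sequence was available. Binding is expressed as a within-array Z-score. This score was averaged across arrays of the same protein sequence at different concentrations or buffers and across linkers, and negative values can be read as non-binding.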

[2] = biological target: Fuc(a1-2)Gal(b1-3)GalNAc
Method in brief: as §1

[3] = biological target: Fuc(a1-2)Gal(b1-3)GalNAc(a1-3)[Fuc(a1-2)]Gal(b1-4)Glc
Method in brief: as §1

[4] = biological target: Fuc(a1-2)Gal(b1-3)GalNAc(a1-3)[Fuc(a1-2)]Gal(b1-4)GlcNAc
Method in brief: as §1

[5] = biological target: Fuc(a1-2)Gal(b1-3)GalNAc(b1-3)Gal
Method in brief: as §1

[6] = biological target: Fuc(a1-2)Gal(b1-3)GalNAc(b1-3)Gal(a1-4)Gal(b1-4)Glc
Method in brief: as §1

[7] = biological target: Fuc(a1-2)Gal(b1-3)GalNAc(b1-4)[Neu5Ac(a2-3)]Gal(b1-4)Glc
Method in brief: as §1

[8] = biological target: Fuc(a1-2)Gal(b1-3)GlcNAc
Method in brief: as §1

[9] = biological target: Fuc(a1-2)Gal(b1-3)GlcNAc(b1-2)Man(a1-3)[Fuc(a1-2)Gal(b1-3)GlcNAc(b1-2)Man(a1-6)]Man(b1-4)GlcNAc(b1-4)GlcNAc
Method in brief: as §1

[10] = biological target: Fuc(a1-2)Gal(b1-3)GlcNAc(b1-2)Man(a1-3)[Fuc(a1-2)Gal(b1-3)GlcNAc(b1-2)Man(a1-6)]Man(b1-4)GlcNAc(b1-4)[Fuc(a1-6)]GlcNAc
Method in brief: as §1

[11] = biological target: Fuc(a1-2)Gal(b1-3)GlcNAc(b1-3)Gal(b1-4)Glc
Method in brief: as §1

[12] = biological target: Fuc(a1-2)Gal(b1-3)GlcNAc(b1-3)GalNAc
Method in brief: as §1

[13] = biological target: Fuc(a1-2)Gal(b1-3)GlcNAc(b1-3)[Fuc(a1-2)Gal(b1-3)GlcNAc(b1-6)]GalNAc
Method in brief: as §1

[14] = biological target: Fuc(a1-2)Gal(b1-3)GlcNAc(b1-3)[Gal(b1-4)GlcNAc(b1-6)]Gal(b1-4)Glc
Method in brief: as §1

[15] = biological target: Fuc(a1-2)Gal(b1-3)GlcNAc(b1-3)[Neu5Ac(a2-6)Gal(b1-4)GlcNAc(b1-6)]Gal(b1-4)Glc
Method in brief: as §1

[16] = biological target: Fuc(a1-2)Gal(b1-3)GlcNAc6S
Method in brief: as §1

[17] = biological target: Fuc(a1-2)Gal(b1-3)[Fuc(a1-4)]GlcNAc
Method in brief: as §1

[18] = biological target: Fuc(a1-2)Gal(b1-3)[Fuc(a1-4)]GlcNAc(b1-2)Man(a1-3)[Fuc(a1-2)Gal(b1-3)[Fuc(a1-4)]GlcNAc(b1-2)Man(a1-3)]Man(b1-4)GlcNAc(b1-4)GlcNAc
Method in brief: as §1

[19] = biological target: Fuc(a1-2)Gal(b1-3)[Fuc(a1-4)]GlcNAc(b1-2)Man(a1-3)[Fuc(a1-2)Gal(b1-3)[Fuc(a1-4)]GlcNAc(b1-2)Man(a1-6)]Man(b1-4)GlcNAc(b1-4)[Fuc(a1-6)]GlcNAc(b1-4)[Fuc(a1-6)]GlcNAc
Method in brief: as §1

[20] = biological target: Fuc(a1-2)Gal(b1-3)[Fuc(a1-4)]GlcNAc(b1-3)[Fuc(a1-3)[Gal(b1-4)]GlcNAc(b1-6)]Gal(b1-4)Glc
Method in brief: as §1

[21] = biological target: Fuc(a1-2)Gal(b1-3)[Fuc(a1-4)]GlcNAc(b1-3)[Gal(b1-4)GlcNAc(b1-6)]Gal(b1-4)Glc
Method in brief: as §1

[22] = biological target: Fuc(a1-2)Gal(b1-4)Glc
Method in brief: as §1

[23] = biological target: Fuc(a1-2)Gal(b1-4)Glc6S
Method in brief: as §1

[24] = biological target: Fuc(a1-2)Gal(b1-4)GlcNAc
Method in brief: as §1

[25] = biological target: Fuc(a1-2)Gal(b1-4)GlcNAc(b1-2)Man
Method in brief: as §1

[26] = biological target: Fuc(a1-2)Gal(b1-4)GlcNAc(b1-2)Man(a1-3)[Fuc(a1-2)Gal(b1-4)GlcNAc(b1-2)Man(a1-6)]Man(b1-4)GlcNAc(b1-4)GlcNAc
Method in brief: as §1

[27] = biological target: Fuc(a1-2)Gal(b1-4)GlcNAc(b1-2)Man(a1-3)[Fuc(a1-2)Gal(b1-4)GlcNAc(b1-2)Man(a1-6)]Man(b1-4)GlcNAc(b1-4)[Fuc(a1-6)]GlcNAc
Method in brief: as §1

[28] = biological target: Fuc(a1-2)Gal(b1-4)GlcNAc(b1-2)[Fuc(a1-2)Gal(b1-4)GlcNAc(b1-4)]Man(a1-3)[Fuc(a1-2)Gal(b1-4)GlcNAc(b1-2)Man(a1-6)]Man(b1-4)GlcNAc(b1-4)GlcNAc
Method in brief: as §1

[29] = biological target: Fuc(a1-2)Gal(b1-4)GlcNAc(b1-3)Gal(b1-4)GlcNAc
Method in brief: as §1

[30] = biological target: Fuc(a1-2)Gal(b1-4)GlcNAc(b1-3)Gal(b1-4)GlcNAc(b1-2)Man(a1-3)[Fuc(a1-2)Gal(b1-4)GlcNAc(b1-3)Gal(b1-4)GlcNAc(b1-2)Man(a1-6)]Man(b1-4)GlcNAc(b1-4)GlcNAc
Method in brief: as §1

[31] = biological target: Fuc(a1-2)Gal(b1-4)GlcNAc(b1-3)Gal(b1-4)GlcNAc(b1-3)Gal(b1-4)GlcNAc
Method in brief: as §1

[32] = biological target: Fuc(a1-2)Gal(b1-4)GlcNAc(b1-3)GalNAc
Method in brief: as §1

[33] = biological target: Fuc(a1-2)Gal(b1-4)GlcNAc(b1-3)[Fuc(a1-2)Gal(b1-4)GlcNAc(b1-6)]GalNAc
Method in brief: as §1

[34] = biological target: Fuc(a1-2)Gal(b1-4)GlcNAc(b1-3)[Fuc(a1-3)[Gal(b1-4)]GlcNAc(b1-6)]Gal(b1-4)Glc
Method in brief: as §1

[35] = biological target: Fuc(a1-2)Gal(b1-4)GlcNAc(b1-6)GalNAc
Method in brief: as §1

[36] = biological target: Fuc(a1-2)Gal(b1-4)GlcNAc6S
Method in brief: as §1

[37] = biological target: Fuc(a1-2)Gal(b1-4)[Fuc(a1-3)]GlcNAc
Method in brief: as §1

[38] = biological target: Fuc(a1-2)Gal(b1-4)[Fuc(a1-3)]GlcNAc(b1-2)Man(a1-3)[Fuc(a1-2)Gal(b1-4)[Fuc(a1-3)]GlcNAc(b1-2)Man(a1-6)]Man(b1-4)GlcNAc(b1-4)[Fuc(a1-6)]GlcNAc
Method in brief: as §1

[39] = biological target: Fuc(a1-2)Gal(b1-4)[Fuc(a1-3)]GlcNAc(b1-2)[Fuc(a1-2)Gal(b1-4)[Fuc(a1-3)]GlcNAc(b1-4)]Man(a1-3)[Fuc(a1-2)Gal(b1-4)[Fuc(a1-3)]GlcNAc(b1-2)Man(a1-6)]Man(b1-4)GlcNAc(b1-4)GlcNAc
Method in brief: as §1

[40] = biological target: Fuc(a1-2)Gal(b1-4)[Fuc(a1-3)]GlcNAc(b1-3)Gal(b1-4)[Fuc(a1-3)]GlcNAc
Method in brief: as §1

[41] = biological target: Fuc(a1-2)Gal(b1-4)[Fuc(a1-3)]GlcNAc(b1-3)Gal(b1-4)[Fuc(a1-3)]GlcNAc(b1-3)Gal(b1-4)[Fuc(a1-3)]GlcNAc
Method in brief: as §1

[42] = biological target: Fuc(a1-2)Gal(b1-4)[Fuc(a1-3)]GlcNAc(b1-3)GalNAc
Method in brief: as §1

[43] = biological target: Fuc(a1-2)Gal(b1-4)[Fuc(a1-3)]GlcNAc(b1-3)[Neu5Ac(a2-6)Gal(b1-4)GlcNAc(b1-6)]Gal(b1-4)Glc
Method in brief: as §1

[44] = biological target: Fuc(a1-2)Gal3S(b1-4)GlcNAc
Method in brief: as §1

[45] = biological target: Fuc(a1-2)Gal6S(b1-3)GlcNAc
Method in brief: as §1

B1: HPL (Tachypleus tridentatus) (protein)
chain: MEDDCTCVTDRSLEGKLMKHPSTPAVYQILDGCRRLVPNPPTYNNIYKNWECIQSNILEKLLCKCDSLSNGAELIKGSGDTVYLLSNGVKRPIADPETFNGFCFDWNKIKTYSDIVINSLSTGPIIIIKHHHHHH
**Q.** B1 was tested. Which “glycan array binding signal (z-score)” value [1] did it give?
**A.** Its value is -0.153.

**Q.** And the “glycan array binding signal (z-score)” value [2]?
**A.** Its value is -0.356.

**Q.** What about the “glycan array binding signal (z-score)” value [3] of the same binder?
**A.** The value was -0.298.

**Q.** And the “glycan array binding signal (z-score)” value [4]?
**A.** Its value is -0.327.

**Q.** What about the “glycan array binding signal (z-score)” value [5] of the same binder?
**A.** Its value is -0.193.

**Q.** And the “glycan array binding signal (z-score)” value [6]?
**A.** The value was -0.202.

**Q.** What about the “glycan array binding signal (z-score)” value [7] of the same binder?
**A.** The value was -0.239.

**Q.** And the “glycan array binding signal (z-score)” value [8]?
**A.** Its value is -0.294.

**Q.** And the “glycan array binding signal (z-score)” value [9]?
**A.** The value was 4.15.

**Q.** And the “glycan array binding signal (z-score)” value [10]?
**A.** Its value is -0.043.

**Q.** What about the “glycan array binding signal (z-score)” value [11] of the same binder?
**A.** The value was -0.339.

**Q.** What about the “glycan array binding signal (z-score)” value [12] of the same binder?
**A.** The value was -0.151.

**Q.** What about the “glycan array binding signal (z-score)” value [13] of the same binder?
**A.** Its value is 0.261.

**Q.** And the “glycan array binding signal (z-score)” value [14]?
**A.** The value was -0.298.

**Q.** What about the “glycan array binding signal (z-score)” value [15] of the same binder?
**A.** The value was -0.343.

**Q.** And the “glycan array binding signal (z-score)” value [16]?
**A.** The value was -0.259.

**Q.** What about the “glycan array binding signal (z-score)” value [17] of the same binder?
**A.** The value was -0.299.

**Q.** And the “glycan array binding signal (z-score)” value [18]?
**A.** The value was 0.082.

**Q.** And the “glycan array binding signal (z-score)” value [19]?
**A.** The value was -0.146.

**Q.** What about the “glycan array binding signal (z-score)” value [20] of the same binder?
**A.** Its value is -0.269.

**Q.** And the “glycan array binding signal (z-score)” value [21]?
**A.** The value was -0.14.

**Q.** And the “glycan array binding signal (z-score)” value [22]?
**A.** The value was 0.039.

**Q.** And the “glycan array binding signal (z-score)” value [23]?
**A.** Its value is 0.223.

**Q.** And the “glycan array binding signal (z-score)” value [24]?
**A.** The value was -0.381.

**Q.** What about the “glycan array binding signal (z-score)” value [25] of the same binder?
**A.** The value was 0.485.

**Q.** And the “glycan array binding signal (z-score)” value [26]?
**A.** The value was 1.38.

**Q.** What about the “glycan array binding signal (z-score)” value [27] of the same binder?
**A.** Its value is 3.19.

**Q.** And the “glycan array binding signal (z-score)” value [28]?
**A.** The value was -0.079.

**Q.** And the “glycan array binding signal (z-score)” value [29]?
**A.** The value was -0.193.

**Q.** And the “glycan array binding signal (z-score)” value [30]?
**A.** Its value is 0.295.

**Q.** What about the “glycan array binding signal (z-score)” value [31] of the same binder?
**A.** The value was -0.284.

**Q.** And the “glycan array binding signal (z-score)” value [32]?
**A.** Its value is -0.192.

**Q.** And the “glycan array binding signal (z-score)” value [33]?
**A.** Its value is -0.28.

**Q.** What about the “glycan array binding signal (z-score)” value [34] of the same binder?
**A.** Its value is -0.284.

**Q.** And the “glycan array binding signal (z-score)” value [35]?
**A.** Its value is 0.018.

**Q.** And the “glycan array binding signal (z-score)” value [36]?
**A.** Its value is -0.195.

**Q.** And the “glycan array binding signal (z-score)” value [37]?
**A.** Its value is -0.364.

**Q.** What about the “glycan array binding signal (z-score)” value [38] of the same binder?
**A.** The value was 0.039.

**Q.** And the “glycan array binding signal (z-score)” value [39]?
**A.** Its value is 2.19.

**Q.** What about the “glycan array binding signal (z-score)” value [40] of the same binder?
**A.** Its value is -0.324.

**Q.** And the “glycan array binding signal (z-score)” value [41]?
**A.** The value was -0.035.

**Q.** And the “glycan array binding signal (z-score)” value [42]?
**A.** Its value is -0.045.

**Q.** What about the “glycan array binding signal (z-score)” value [43] of the same binder?
**A.** Its value is -0.2.

**Q.** What about the “glycan array binding signal (z-score)” value [44] of the same binder?
**A.** Its value is -0.264.

**Q.** What about the “glycan array binding signal (z-score)” value [45] of the same binder?
**A.** Its value is 0.027.

From the supplement of paper PMC8728848
